Measured values taken from the supplement of paper PMC12217912.
Some of the results follow. Sequences were assembled here from the parent chain. Values near 0.05 are background.

B1: TEV protease; numbered along this chain (parent)
chain: MGESLFKGPRDYNPISSSICHLTNESDGHTTSLYGIGFGPFIITNKHLFRRNNGTLVVQSLHGVFKVKDTTTLQQHLVDGRDMIIIRMPKDFPPFPQKLKFREPQREERICLVTTNFQTKSMSSMVSDTSCTFPSGDGIFWKHWIQTKDGQCGSPLVSTRDGFIVGIHSASNFTNTNNYFTSVPKNFMELLTNQEAQQWVSGWRLNADSVLWGGHKVFMVKPEEPFQPVKEATQL

Variants of: B1
Assay: raw area under fraction-flipped curve 0-4 h after induction (AUC4h, not background-subtracted), DNA-recorder readout of cleavage of the substrate (dimensionless); higher = more cleavage of the substrate by the protease variant
Details: temperature: 34 °C; time window: 0-4 h after rhamnose induction
Method: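 In vivo DNA recorder in E. coli TOP10(DE3) ΔrhaA at 34 °C. Each TEVp single-site mutant (parent TEVp 0) is paired with a single-site variant of the 7-mer TEVs (canonical ENLYFQ|S). The substrate sits between flexible linkers in a Bxb1-sfGFP-TEVs-SsrA fusion, so cleavage stabilises Bxb1 and speeds flipping of a recombination array, read by NGS. The value is the raw area under the fraction-flipped curve over 0-4 h after rhamnose induction (AUC4h), with ≥20 reads per time point. It is not background-subtracted; inactive controls average about 0.047.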
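Also: Bxb1 expression induced with 0.2% (w/v) L-rhamnose at OD600 near 0.5, cultures sampled hourly, flipped fraction per protease–substrate barcode pair counted by paired-end Illumina sequencing.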

Row | Variant | area with substrate ENLYAQS | area with substrate ENLYDQS | area with substrate ENLYEQS | area with substrate ENLYGQS | area with substrate ENLYHQS | area with substrate ENLYIQS | area with substrate ENLYKQS | area with substrate ENLYLQS | area with substrate ENLYNQS | area with substrate ENLYPQS | area with substrate ENLYRQS | area with substrate ENLYSQS | area with substrate ENLYVQS | area with substrate ENLYWQS | area with substrate ENLYYQS | area with substrate ENLYMQS | area with substrate ENLYQQS | area with substrate ENLYTQS | area with substrate ENLYCQS
1 | MGESLFKGPRDYNPISSSICHLTNESDGHTTSLYGIGFGPFIITNKHLFVRNNGTLVVQSLHGVFKVKDTTTLQQHLVDGRDMIIIRMPKDFPPFPQKLKFREPQREERICLVTTNFQTKSMSSMVSDTSCTFPSGDGIFWKHWIQTKDGQCGSPLVSTRDGFIVGIHSASNFTNTNNYFTSVPKNFMELLTNQEAQQWVSGWRLNADSVLWGGHKVFMVKPEEPFQPVKEATQL [R50V] | 0.098 | 0.0637 | 0.0526 | 0.0623 | 0.104 | 0.199 | 0.0214 | 0.11 | 0.0667 | 0.0755 | 0.0659 | 0.0721 | 0.15 | 0.105 | 0.0654 | – | – | – | –
2 | MGESLFKGPRDYNPISSSICHLTNESDGHTTSLYGIGFGPFIITNKHLFRRNEGTLVVQSLHGVFKVKDTTTLQQHLVDGRDMIIIRMPKDFPPFPQKLKFREPQREERICLVTTNFQTKSMSSMVSDTSCTFPSGDGIFWKHWIQTKDGQCGSPLVSTRDGFIVGIHSASNFTNTNNYFTSVPKNFMELLTNQEAQQWVSGWRLNADSVLWGGHKVFMVKPEEPFQPVKEATQL [N53E] | 0.0709 | 0.058 | 0.0469 | – | 0.0691 | 0.102 | 0.0748 | – | 0.0689 | – | 0.0656 | – | 0.0906 | 0.0856 | – | 0.0848 | – | – | –
3 | MGESLFKGPRDYNPISSSICHLTNESDGHTTSLYGIGFGPFIITNKHLFRRNNDTLVVQSLHGVFKVKDTTTLQQHLVDGRDMIIIRMPKDFPPFPQKLKFREPQREERICLVTTNFQTKSMSSMVSDTSCTFPSGDGIFWKHWIQTKDGQCGSPLVSTRDGFIVGIHSASNFTNTNNYFTSVPKNFMELLTNQEAQQWVSGWRLNADSVLWGGHKVFMVKPEEPFQPVKEATQL [G54D] | 0.0444 | 0.0683 | 0.0618 | 0.0624 | 0.0608 | 0.0868 | 0.0279 | – | 0.0606 | 0.0761 | 0.0643 | 0.0672 | 0.074 | 0.0667 | 0.0587 | 0.0645 | 0.073 | 0.0598 | –
4 | MGESLFKGPRDYNPISSSICHLTNESDGHTTSLYGIGFGPFIITNKHLFRRNNGTLVVQSLHKVFKVKDTTTLQQHLVDGRDMIIIRMPKDFPPFPQKLKFREPQREERICLVTTNFQTKSMSSMVSDTSCTFPSGDGIFWKHWIQTKDGQCGSPLVSTRDGFIVGIHSASNFTNTNNYFTSVPKNFMELLTNQEAQQWVSGWRLNADSVLWGGHKVFMVKPEEPFQPVKEATQL [G63K] | 0.0605 | – | 0.0506 | 0.0617 | 0.0666 | – | – | – | 0.0666 | 0.0656 | 0.0634 | – | 0.104 | – | – | – | – | – | –
5 | MGESLFKGPRDYNPISSSICHLTNESDGHTTSLYGIGFGPFIITNKHLFRRNNGTLVVQSLHVVFKVKDTTTLQQHLVDGRDMIIIRMPKDFPPFPQKLKFREPQREERICLVTTNFQTKSMSSMVSDTSCTFPSGDGIFWKHWIQTKDGQCGSPLVSTRDGFIVGIHSASNFTNTNNYFTSVPKNFMELLTNQEAQQWVSGWRLNADSVLWGGHKVFMVKPEEPFQPVKEATQL [G63V] | 0.0619 | 0.0551 | 0.0608 | 0.0654 | 0.0653 | 0.0973 | 0.0577 | 0.0646 | 0.0598 | 0.0679 | 0.0697 | 0.0652 | 0.0987 | 0.0559 | 0.0508 | – | 0.0695 | 0.0709 | 0.085
6 | MGESLFKGPRDYNPISSSICHLTNESDGHTTSLYGIGFGPFIITNKHLFRRNNGTLVVQSLHGSFKVKDTTTLQQHLVDGRDMIIIRMPKDFPPFPQKLKFREPQREERICLVTTNFQTKSMSSMVSDTSCTFPSGDGIFWKHWIQTKDGQCGSPLVSTRDGFIVGIHSASNFTNTNNYFTSVPKNFMELLTNQEAQQWVSGWRLNADSVLWGGHKVFMVKPEEPFQPVKEATQL [V64S] | 0.0701 | 0.0623 | – | 0.0656 | – | 0.0899 | 0.0595 | 0.0963 | – | – | – | – | – | 0.0788 | 0.0503 | 0.106 | 0.0622 | – | –
7 | MGESLFKGPRDYNPISSSICHLTNESDGHTTSLYGIGFGPFIITNKHLFRRNNGTLVVQSLHGVYKVKDTTTLQQHLVDGRDMIIIRMPKDFPPFPQKLKFREPQREERICLVTTNFQTKSMSSMVSDTSCTFPSGDGIFWKHWIQTKDGQCGSPLVSTRDGFIVGIHSASNFTNTNNYFTSVPKNFMELLTNQEAQQWVSGWRLNADSVLWGGHKVFMVKPEEPFQPVKEATQL [F65Y] | 0.0757 | 0.0646 | 0.054 | 0.0657 | – | 0.111 | 0.0555 | 0.0819 | 0.0895 | 0.0605 | 0.0594 | 0.0295 | – | 0.0787 | 0.0673 | 0.0418 | 0.0712 | – | 0.101
8 | MGESLFKGPRDYNPISSSICHLTNESDGHTTSLYGIGFGPFIITNKHLFRRNNGTLVVQSLHGVFKVKMTTTLQQHLVDGRDMIIIRMPKDFPPFPQKLKFREPQREERICLVTTNFQTKSMSSMVSDTSCTFPSGDGIFWKHWIQTKDGQCGSPLVSTRDGFIVGIHSASNFTNTNNYFTSVPKNFMELLTNQEAQQWVSGWRLNADSVLWGGHKVFMVKPEEPFQPVKEATQL [D69M] | 0.075 | 0.0553 | – | – | 0.0614 | 0.104 | 0.0683 | 0.0723 | 0.0548 | – | 0.0568 | 0.0612 | 0.0714 | – | 0.0525 | – | 0.0901 | 0.0802 | –
9 | MGESLFKGPRDYNPISSSICHLTNESDGHTTSLYGIGFGPFIITNKHLFRRNNGTLVVQSLHGVFKVKDVTTLQQHLVDGRDMIIIRMPKDFPPFPQKLKFREPQREERICLVTTNFQTKSMSSMVSDTSCTFPSGDGIFWKHWIQTKDGQCGSPLVSTRDGFIVGIHSASNFTNTNNYFTSVPKNFMELLTNQEAQQWVSGWRLNADSVLWGGHKVFMVKPEEPFQPVKEATQL [T70V] | 0.072 | 0.0644 | 0.0618 | 0.0708 | – | – | 0.0689 | 0.0749 | – | 0.0639 | – | 0.0606 | 0.069 | 0.0565 | – | 0.057 | – | 0.0727 | –
